1 molecule from patent US12440573B2, “Antibody-conjugates for targeting of tumours expressing PTK7” (Synaffix B.V., priority 2022, dated 2025) can be followed below.

For the assay, the system named is PTK7 expressing NCl—H446 tumor model. In words: In vivo efficacy study, NCl—H446 xenograft (Example 31). The arrangement: species or system BALB/c nude mice. The settings on record: 5 mg/kg, single IV dose. On the procedure: NCl—H446, lung cancer xenograft model cell line was maintained in vitro using RPMI-1640 medium supplemented with 10% FBS in humidified cell culture incubator at 37° C. with standard 5% CO2 specs. The cells in an exponential growth phase were harvested and counted for tumor inoculation.
BALB/c nude mice (female) of 7-9 weeks old received a subcutaneous injection in the right front flank region with 5×10^6 tumor cells in 0.1 ml of PBS mixed with Matrigel (1:1) for tumor development. When tumors reached an average size of 100-200 mm^3, randomization was performed into 6 groups of 8 mice and treatment began. Randomization will be performed based on “Matched distribution” method (Study Director™ Software, version 3.1.399.19). The date of randomization will be denoted as day 0.
Electronic caliper measurement were performed 2 times a week. Daily observations for clinical signs, food and water consumption, behavioral changes, animals were weighed 2 times per week. […]
Observation and data collection: After tumor cells inoculation, the animals are checked daily for morbidity and mortality. […] Tumor volumes are measured every 3-4 days in two dimensions using an caliper, and the volume data are expressed in mm3 using the formula: V=(L×W×W)/2, where V is tumor volume, L is tumor length (the longest tumor dimension) and W is tumor width (the longest tumor dimension perpendicular to L). […]

B1: 4D5-3 (conjugate)
heavy: QVQLVESGGGVVQPGRSLRLSCAASGFTFSSYAFHWVRQAPGKGLEWVAVISYDGSIKYYADSVKGRFTISRDNSKNTLYLQMNSLRAEDTAVYYCARTYYFDYWGQGTLVTVSS[left out - human IgG1 constant region]
light: EIVLTQSPDFQSVTPKEKVTITCRASQSIGSSLHWYQQKPDQSPKLLIKYASQSFSGVPSRFSGSGSGTDFTLTINSLEAEDAAAYYCHQSSSLPITFGQGTRLEIKRTVAAPSVFIFPPSDEQLKSGTASVVCLLNNFYPREAKVQWKVDNALQSGNSQESVTEQDSKDSTYSLSSTLTLSKADYEKHKVYACEVTHQGLSSPVTKSFNRGEC
With B1, the “in vivo efficacy (tumor volume over time)” value is listed as “marginal tumor growth delay”.
